Whole data set: some 13,000 compounds, median “IFI” near 4, cut for the highest 2% near 17. The list shows a part of the results.

This assay is described as follows: GSK_TCMDC: Inhibition Frequency Index (IFI). The number of non-kinase HTS assays where a compound showed > 50 % inhibition, expressed as a percentage of the number of such assays in which the compound was tested (-0 is zero). It is filed as functional.
For the compound `Cc1cccc(Cn2ccc3c(N)nc(N)nc32)c1`, the IFI turned out to be 2.38%.
In the case of `Cc1ccc(C)c(C2CCN(CCCCNC(=O)c3ccc(NC(=O)c4ccc(Cl)cc4)cc3)CC2)c1` it was 2.26%; in that of `OC(COc1ccccc1-c1nc2ccccc2o1)CN1CCCN(CCc2ccccc2)CC1` (stereo not given), 3.73%; in that of `CNC(=O)c1cnc(Nc2ccc(N3CCOCC3)cc2)nc1Nc1cccc(O)c1`, 6.67%.
Consider `Nc1cccc(CNCc2cccc(-c3csc(-c4nc5ccccc5[nH]4)c3)c2)c1`, for which the IFI stood at 2.86%.
With `CC(C)C(NC(=O)Cc1cccc2ccccc12)C(=O)Nc1cccc(C#N)c1` (stereo not given), the IFI worked out at 1.2%.
Under `Cc1cc(I)ccc1Nc1nc2nonc2nc1Nc1ccc(I)cc1C` stands 15.2%.
Under `Nc1ccnc(N2CCC(CCOc3ccnc4cc(Cl)ccc34)CC2)c1` stands 13.8%; under `Cc1nc(C)c(CC(=O)Nc2cccc(-c3cccc(-c4nc5cc(C(F)(F)F)ccc5[nH]4)c3)c2)s1`, 15.9%; under `O=C(N[C@@H](Cc1ccccc1)C(=O)NCc1cccc2ccccc12)c1ccc(O)c(-c2ccc(Cl)c(Cl)c2)c1`, 2.21%.
In the case of `Cc1ccc(NS(=O)(=O)c2cccs2)cc1-c1cccc(C(=O)Nc2ccc(F)cc2)c1` it was 14.3%; in that of `CC1CCCCN1CCCNc1ncc2c(-c3ccc(NC(=O)Nc4cc(C(F)(F)F)ccc4F)c(F)c3)nn(C)c2n1` (stereo not given), 8.76%.
Compound `Cc1[nH]c(C)c(-c2ccc(-c3ccc(OC(F)(F)F)cc3)cc2)c(=O)c1Br` came in with an IFI of 2.73%.
In the case of `Cn1nc(C(F)(F)F)c(-c2ccc(Br)cc2)c1NC(=O)Nc1ccc(F)cc1F` it was 5.43%; in that of `Cn1cnc2nc(NCCc3ccccc3)nc(NCc3cccc4ccccc34)c21`, 13.1%.
Compound `CCNc1cc(C(=O)N[C@@H](Cc2ccccc2)[C@H](O)CNCCc2cccc(C(F)(F)F)c2)cc(N2CCCC2=O)c1` gave an IFI of 8.4%.
In the case of `COc1cccc(C(=O)Nc2ccc(-c3nc4ccccc4[nH]3)cc2)c1` it was 3.51%; in that of `O=C(Nc1ccccc1F)NC1CCN(c2ccnc(Nc3ccc(F)cc3)n2)C1` (stereo not given), 1.54%.
`CCC(C)NS(=O)(=O)c1ccc2nc(Nc3ccc(C)cc3)n(C3CCCCC3C)c2c1` (stereo not given) gave an IFI of 3.7%.
In the case of `CC(C)C[C@H](NC(=O)c1ccc(OCCN2CCOCC2)cc1)C(=O)N[C@H](/C=N/N1CCNC1=O)CCc1ccccc1` it was 2.75%; in that of `O=C(Nc1ccc2c(c1)CCN(C1CCC1)CC2)c1cn(-c2ccccc2)nc1-c1ccccc1`, 5.26%; in that of `CN1CCC(c2nc(N)no2)C1` (stereo not given), 3.68%.
For the compound `Cc1ccc(NC(C)C(=O)Nc2ccccc2)cc1S(=O)(=O)N1CCCCCC1` (stereo not given), the IFI stood at 0%.
In turn, `Cc1ccc(NC(=O)C2CCC2)cc1-c1ccc(C(=O)NCC2CC2)cc1` registered an IFI of 0.71%.
In the case of `O=C(NC1CC1)c1ccc(N2CCC(Cc3ccccc3)CC2)nc1` it was 6.67%.
In the case of `Cc1cc(-c2cccc(CNCc3ccc(F)cc3)c2)ccc1S(=O)(=O)NCCN1CCCC1` it was 12.9%; in that of `Cc1cccc(-c2nc(Nc3ccncc3)c3ccc([N+](=O)[O-])cc3n2)n1`, 2.31%.
In the case of `O=C(c1ccc(Cl)cc1Cl)N1CCCC(C(F)(F)F)C1` (stereo not given) it was 3.45%.
Take `Cc1noc(C)c1-c1ccc(C(=C2CCCCCCC2)c2ccc(O)cc2)cc1`: the IFI worked out at 7.09%.
Under `CC(Oc1ccc(Cl)cc1)C(=O)Nc1cc(C(F)(F)F)ccc1-n1cncn1` (stereo not given) stands 5.77%.
Under `CC(=O)c1c(Cc2ccccc2Cl)c[nH]c1C` stands 1.23%; under `O=C(CCc1c[nH]cn1)Nc1cccc(-c2cccc(-c3nc4cc(C(F)(F)F)ccc4[nH]3)c2)c1`, 5.26%; under `N#Cc1cccc(NC(=O)c2ccc(S(=O)(=O)NCC3CCCN3CC3CCCCC3)cc2)c1` (stereo not given), 2.67%.
Under `CCCCCCCCn1c2c(c(=N)c3c1CCC3)CCC2` stands 9.59%; under `Cn1nc(-c2ccc(NC(=O)Nc3cc(C(F)(F)F)ccc3F)cc2)c2cnc(NCCc3c[nH]cn3)nc21`, 8.66%; under `O=C1CCCN1CCCNCc1cccc(-c2ccc(-c3nc4ccccc4[nH]3)s2)c1`, 0%.
As for `COc1cc(-c2nc3ccc(N4CCN(C)CC4)cc3[nH]2)cc(OC)c1OC`, the IFI is 1.32%.
As for `CCCNC[C@@H](O)[C@H](Cc1ccccc1)NC(=O)c1cc2c3c(c1)c(CC)cn3CCS(=O)(=O)N2C`, the IFI was found to be 1.59%.
Under `O=C(/C=C/c1ccccc1O)NCCCCCN1CCC(c2c[nH]c3ccccc23)CC1` stands 4.38%.
Compound `CC(C)NCC(O)COc1ccc(Cc2ccc(OCC(O)CNC(C)C)cc2)cc1` (stereo not given) showed an IFI of 0.75%.
In the case of `COc1ccc2nc3cc(Cl)ccc3c(NCCO)c2c1` it was 1.4%.
In the case of `COc1ccc(-n2ccnc2SCC(=O)Nc2cc(C)ccc2C)c(OC)c1` it was 5.63%; in that of `Cc1cc(Cl)ccc1N(Cc1ccccc1)c1ccnc(Cl)n1`, 2.26%.
Compound `O=c1cc(NCCCNCc2scc3c(Cl)cc(C(F)(F)F)nc23)[nH]c2ccccc12` gave an IFI of 7.91%.
`Cc1nc2ccc3ccc(CNc4ccc(C(=O)CC(CCC(=O)O)C(=O)O)cc4)cc3c2c(=O)[nH]1` (stereo not given) displayed an IFI of 1.43%.
In the case of `CCOc1cc(C(=O)Nc2ccc3nc(N(CC)CC)cc(C)c3c2)cc(OCC)c1OCC` it was 0.77%; in that of `COc1ccc(-c2cc(-c3ccc(S(C)(=O)=O)cc3)cnc2N)cn1`, -0%.
`CCNC(=O)c1cc(S(=O)(=O)N2CCN(c3ccccn3)CC2)cs1` had an IFI of 2.13%.
The compound `COc1ccccc1CNC(=O)C(=O)Nc1c(-c2ccccc2)[nH]c2ccccc12` yielded an IFI of 2.56%.
With `O=C(Nc1nc2cc(S(=O)(=O)NCCc3cccc(F)c3)ccc2n1CCCn1ccnc1)c1ccc(Cl)cc1`, the IFI amounted to 1.43%.
As to `Cc1c(Cn2ncc(N3CC(C)NC(C)C3)c(Cl)c2=O)cccc1NC(=O)Nc1ccc(-c2ccccc2)cc1` (stereo not given), the IFI was 8.84%.
In the case of `COc1cccc2cc(C(=O)N[C@@H](CC(C)C)C(=O)N[C@H](/C=N/NC(=O)OC(C)(C)C)CC(=O)OC(C)(C)C)oc12`, the IFI is 2.75%.
Take `CCC(CCON1C(N)=NC(N)=NC1(C)C)c1ccc(Cl)cc1` (stereo not given): the IFI was 5.97%.
For the compound `CCC(C)NC(=O)Nc1ccc(-c2cccc(-c3nc4cc(C(F)(F)F)ccc4[nH]3)c2)cc1` (stereo not given), the IFI was 9.71%.
With `COc1ccc(CN(C)CCCc2ccc(NC(=O)c3cc4ccccc4[nH]3)cc2)cc1OC`, the IFI turned out to be 12.7%.
In the case of `CCN(CC)CCCN(CCCN(CC)CC)c1cc(C)nc(Nc2ccc3cc(Br)ccc3c2)n1` it was 4.35%; in that of `O=C(/C=C/c1ccc(Cl)c(Cl)c1)NCCCCCCN1CCCN(C(=O)Nc2ccc(Cl)c(C(F)(F)F)c2)CC1`, 11.3%.
In the case of `N#Cc1ccc(S(=O)(=O)N2C(c3cccc([N+](=O)[O-])c3)C(C(=O)c3ccccc3)N(C3CCCCC3)C2c2cccc([N+](=O)[O-])c2)cc1` (stereo not given), the IFI was 0.74%.
The compound `O=C(NCc1ccccc1)c1ncn(CCCN2CCC(N3CCCC3)CC2)c1-c1ccc(Cl)c(Cl)c1` yielded an IFI of 2.14%.
Under `CCCCc1ccc(C(=O)Nc2ccc3nc(N4CCN(CC)CC4)cc(C)c3c2)cc1` stands 7.89%.
On to `O=C(Cc1cccc(Cl)c1)N1CCc2cc3nccc(N4CCN5CCC[C@H]5C4)c3cc21`, for which the IFI is -0%.
In the case of `Cc1nnsc1C(=O)Nc1cccc(-c2cccc(-c3nc4ccccc4[nH]3)c2)c1` it was 4.55%.
Under `COc1ccc2c(=NN=Cc3ccncc3)cc(C)[nH]c2c1` stands 1.42%; under `N#Cc1cccc(/C=C/C(=O)NC2CCC(CCN3CCc4ccc(-c5cnccn5)cc4CC3)CC2)c1` (stereo not given), 3.91%.
Under `Clc1ccc(CNc2nc(NCCc3c[nH]cn3)nc(NC3CCCCC3)n2)cc1` stands 1.47%.
In the case of `COc1ccc2nccc([C@@H](O)CN3CCC(NC(=O)c4cc5c(Cl)cc(Cl)cc5[nH]4)CC3)c2c1`, the IFI stood at 5.15%.
Under `CC1(C)NC(N)=NC(=N)N1OCCCOc1cc(Cl)cc(Cl)c1` stands 3.5%; under `Oc1ccccc1CNC1CCCCC1NCc1ccccc1O` (stereo not given), 4.51%; under `COc1ccc(-c2nc(NC(=O)CS(=O)(=O)c3ccc(OC)cc3)sc2C)cc1`, 5.63%.
In turn, `CCOC(=O)CNCC(=O)c1ccc(OCc2ccccc2)cc1` returned an IFI of 2.84%.
Under `O=C(NCCN1CCCC1)c1ccc(-c2ccc(-c3nc4cc(C(F)(F)F)ccc4[nH]3)s2)cc1` stands 7.14%; under `CC(C)c1ccc(Cn2cc(-c3ccncc3)c3cc(OCc4ccccc4)ccc32)cc1`, 0.76%; under `CN1CCC(N2CCN(Cc3cccc(-c4ccc(-c5nc6cc(C(F)(F)F)ccc6[nH]5)cc4)c3)CC2)CC1`, 9.72%.
On to `COc1ccc(-c2ccc(NC(=O)c3ccc(Cl)cc3)cc2)cc1CN1CCNCC1`, for which the IFI worked out at 7.79%.
In the case of `Oc1ccc(CCCNc2nc(NCc3cccc4ccccc34)nc(N3CCNCC3)n2)cc1`, the IFI came to 7.69%.
Consider `CCNc1cc(C(=O)N[C@@H](Cc2ccccc2)[C@H](O)CNCc2cccc(OC)c2C)cc(N2CCCCS2(=O)=O)c1`, for which the IFI amounted to 2.17%.
In the case of `CCCNC(=O)Nc1ccc(N(C)c2ccnc(NC3CC3)n2)cc1` it was 5.45%; in that of `CCCCCCCN1CCC(CC(=O)Nc2ccnc3ccc(OC)cc23)C(CC)C1` (stereo not given), 0%; in that of `CCc1cn(C)c2c(N3CCCC3=O)cc(C(=O)N[C@@H](Cc3ccccc3)[C@H](O)CNCc3cccc(OC)c3)cc12`, 2.94%.
Under `O=C(Nc1ccc(Cl)cc1C(=O)Nc1ccncc1)c1ccc(Cl)cc1Cl` stands 2.68%; under `CCCCOc1ccc(CNCCCCCCNCc2ccc(OCCCC)c3ccccc23)c2ccccc12`, 17.8%.
In the case of `COc1cc2nccc(Nc3ccc(OCc4ccc(NC(C)=O)cc4)cc3)c2cc1OC` it was 5.84%; in that of `CC(C)(C)OC(=O)NCCc1cccc(-c2c[nH]c3ncc(-c4cccc(NS(C)(=O)=O)c4)cc23)c1`, 12.9%; in that of `FC(F)(F)c1cccc(-c2cc(NCCCn3ccnc3)nc(-c3ccncc3)n2)c1`, 9.38%.
Take `CCCCN1CC[C@@H](CCC(O)c2ccnc3ccc(OCCC(C)C)cc23)[C@@H](CC)C1` (stereo not given in full): the IFI is 3.55%.
Take `Cc1noc(-c2ccc3c(c2)CCN(CCC2CCC(NC(=O)c4cc5ccccc5[nH]4)CC2)CC3)n1` (stereo not given): the IFI came out at 2.24%.
Under `COC(=O)c1ccc2nc(-c3ccc(C(=O)NC4CCN(Cc5ccccc5)CC4)s3)[nH]c2c1` stands 1.5%; under `FC(F)(F)c1ccc2[nH]c(-c3cccc(-c4cccc(CNCCc5ccncc5)c4)c3)nc2c1`, 8.82%.
Under `Fc1ccc(C=NN=c2cc[nH]c3ccccc23)cc1` stands 4.58%.
In the case of `COc1cc(-c2nc3c4ccccc4c4ccccc4c3[nH]2)cc(OC)c1OC` it was 1.48%.
